We go through 60 molecules from the supplement of paper PMC9446081.

Molecules are shown by their SMILES. About 220 (0.56%) of roughly 39,000 compounds showed activity. The list shows a part of the results.
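Also: static incubation at 37 °C against the wild-type strain, values averaged over two biological replicates.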

This assay has as its system Escherichia coli K-12 BW25113. In words: relative growth (OD600 normalised to plate interquartile mean) (fraction); higher = less growth inhibition, active = 0.2 or less. The note with it: 50 µM; LB; incubation time: overnight (16-24 h).
With `C[C@@H]1CN([C@H](C)CO)C(=O)c2cc(NC(=O)Nc3ccc4c(c3)OCO4)ccc2O[C@@H]1CN(C)S(C)(=O)=O`, the relative growth is inactive: 0.994.

With `Cc1ncsc1-c1ccc(CNC(=O)[C@@H]2C[C@@H](O)CN2C(=O)[C@H](C(C)C)N2Cc3ccccc3C2=O)cc1`, the relative growth was inactive: 1.02.

`O=C(C[C@@H]1CC[C@H](NC(=O)c2cccnc2)[C@H](CO)O1)NCCN1CCCCC1`: the relative growth was inactive: 0.985.

Regarding `Cc1noc(C)c1S(=O)(=O)N(C)C[C@H]1OCCCC[C@H](C)Oc2ccc(NC(=O)Nc3cccc4ccccc34)cc2C(=O)N([C@H](C)CO)C[C@@H]1C`, the relative growth is inactive: 1.01.

As for `Cc1ccc(S(=O)(=O)N(C)C[C@@H]2Oc3c(NS(=O)(=O)c4ccccc4)cccc3C(=O)N([C@H](C)CO)C[C@H]2C)cc1`, the relative growth is inactive: 0.996.

In the case of `C[C@H]1CN([C@@H](C)CO)C(=O)c2cc(NC(=O)Nc3ccccc3)ccc2O[C@H]1CN(C)S(C)(=O)=O`, the relative growth was inactive: 0.99.

As to `C[C@@H]1CN([C@H](C)CO)C(=O)c2c(c3ccccc3n2C)-c2ccccc2CO[C@@H]1CN(C)C(=O)Nc1ccccc1`, the relative growth is inactive: 1.02.

With `C[C@@H]1CN([C@@H](C)CO)C(=O)CCCn2cc(nn2)CO[C@H]1CN(C)S(=O)(=O)c1cccc(C#N)c1`, the relative growth was inactive: 1.01.

Take `COc1ccc(S(=O)(=O)N(C)C[C@H]2OCCCC[C@H](C)Oc3ccc(NC(=O)Nc4ccc5c(c4)OCO5)cc3C(=O)N([C@H](C)CO)C[C@@H]2C)cc1`: the relative growth is inactive: 1.03.

In the case of `Cc1noc(C)c1S(=O)(=O)N(C)C[C@H]1Oc2ccc(NC(=O)Nc3ccc4c(c3)OCO4)cc2CC(=O)N([C@H](C)CO)C[C@H]1C`, the relative growth is inactive: 1.01.

Regarding `O=C(C[C@H]1CC[C@@H]2[C@H](COC[C@H](O)CN2C(=O)c2ccccc2)O1)N1CCOCC1`, the relative growth was inactive: 0.984.

Consider `CC(C)NC(=O)N(C)C[C@@H]1Oc2cc(-c3ccccc3F)ccc2S(=O)(=O)N([C@H](C)CO)C[C@@H]1C`, for which the relative growth was inactive: 1.02.

As to `O=C1N[C@@H](Cc2c[nH]c3ccccc23)COC(=O)[C@H](Cc2ccc(F)cc2)CCC=CC[C@@H]1CC(=O)N(CCO)Cc1ccccc1`, the relative growth was inactive: 1.01.

Turning to `C[C@@H]1CN([C@H](C)CO)C(=O)c2c(c3ccccc3n2C)-c2ccccc2CO[C@H]1CN(C)C(=O)Nc1ccc(F)cc1`, the relative growth is inactive: 1.03.

In the case of `CCOc1nc2c(ncn2C)c(=O)n1C`, the relative growth was inactive: 0.938.

For `C[C@H]1CN([C@@H](C)CO)C(=O)Cc2cc(NS(=O)(=O)c3cn(C)cn3)ccc2O[C@@H]1CN(C)S(C)(=O)=O`, the relative growth is inactive: 1.02.

`C[C@H](CO)N1C[C@H](C)[C@H](CN(C)Cc2ccc(C(=O)Nc3ccccc3N)cc2)OCCCC[C@H](C)Oc2ccc(NC(=O)C3CCCCC3)cc2C1=O`: the relative growth is inactive: 1.01.

For `COc1ccc(CNCC(=O)O)cc1`, the relative growth is inactive: 1.03.

Turning to `CCOC(=O)c1c(C)c(Cl)c(O)c(Cl)c1O`, the relative growth was inactive: 1.01.

In the case of `O=C(C1=C[C@H](c2csc3ccccc23)C[C@H](OCc2ccc(CO)cc2)O1)N1CCN(Cc2ccc3c(c2)OCO3)CC1`, the relative growth was inactive: 1.02.

Turning to `Cc1ccc(S(=O)(=O)N(C)C[C@H]2OCCCC[C@@H](C)Oc3ccc(NS(=O)(=O)c4ccc(F)cc4)cc3C(=O)N([C@@H](C)CO)C[C@H]2C)cc1`, the relative growth was inactive: 1.01.

In the case of `CN1CCN(C(=O)CNS(=O)(=O)c2ccccc2)CC1`, the relative growth is inactive: 0.998.

Turning to `Cc1noc(C)c1S(=O)(=O)N(C)C[C@@H]1Oc2ccc(NS(=O)(=O)c3cccs3)cc2C(=O)N([C@H](C)CO)C[C@@H]1C`, the relative growth is inactive: 0.962.

As for `Cc1noc(C)c1S(=O)(=O)Nc1ccc2c(c1)C(=O)N([C@@H](C)CO)C[C@H](C)[C@@H](CN(C)Cc1ccc(Oc3ccccc3)cc1)O2`, the relative growth is inactive: 0.989.

`COc1ccc(cc1)CN1C[C@]2(CN(C2)C(=O)Cc2ccncc2)c2c([nH]c3cc(ccc23)OC)[C@@H]1CO`: the relative growth is inactive: 0.992.

In the case of `C[C@@H]1CN([C@@H](C)CO)C(=O)c2cc(NC(=O)Nc3ccc(C(F)(F)F)cc3)ccc2O[C@H]1CN(C)S(=O)(=O)c1ccc(F)cc1`, the relative growth is inactive: 1.

As for `NC(=O)N1CCC(CC(=O)N2CCC([C@H]3c4ncc(Br)cc4CCc4cc(Cl)cc(Br)c43)CC2)CC1`, the relative growth was inactive: 1.02.

For `C[C@H](CO)N1C[C@H](C)[C@@H](CN(C)Cc2ccc3c(c2)OCO3)OCCCC[C@H](C)Oc2ccc(NC(=O)Nc3ccc(C(F)(F)F)cc3)cc2C1=O`, the relative growth is inactive: 1.01.

Regarding `C[C@@H]1CN([C@H](C)CO)C(=O)CCCn2cc(nn2)CO[C@@H]1CN(C)C(=O)C1CC1`, the relative growth is inactive: 0.97.

On to `Cc1noc(C)c1NC(=O)Nc1ccc2c(c1)C(=O)N([C@H](C)CO)C[C@@H](C)[C@H](CN(C)C(=O)Nc1c(C)noc1C)OCCCC[C@@H](C)O2`, for which the relative growth was inactive: 1.01.

Take `Cc1ccc(S(=O)(=O)N(C)C[C@H]2OCCCC[C@@H](C)Oc3ccc(NS(=O)(=O)c4ccc(F)cc4)cc3C(=O)N([C@H](C)CO)C[C@@H]2C)cc1`: the relative growth is inactive: 1.01.

Consider `O=C(c1cnc2ccccc2c1)C1CC1`, for which the relative growth was inactive: 1.01.

Consider `C[C@H]1CCCCO[C@@H](CN(C)C(=O)Nc2ccccc2)[C@@H](C)CN([C@@H](C)CO)C(=O)c2cc(NS(=O)(=O)c3ccc(F)cc3)ccc2O1`, for which the relative growth is inactive: 1.02.

For the molecule `C[C@@H]1CN([C@H](C)CO)C(=O)c2cc(NC(=O)C3CCCCC3)ccc2O[C@@H](C)CCCCO[C@@H]1CN(C)Cc1ccncc1`, the relative growth was inactive: 0.997.

Turning to `Cc1noc(C)c1NC(=O)Nc1ccc2c(c1)C(=O)N([C@@H](C)CO)C[C@@H](C)[C@H](CN(C)S(=O)(=O)c1ccc(Cl)cc1)OCCCC[C@@H](C)O2`, the relative growth is inactive: 1.02.

For the molecule `C=CC(=O)Nc1cccc([C@@H](CCc2ccc(OC)c(OC)c2)OC(=O)[C@@H]2CCCCN2C(=O)C(=O)C(C)(C)CC)c1`, the relative growth was inactive: 1.02.

As for `COc1cccc(-c2ccc3c(c2)O[C@H](CN(C)C(=O)C2CCC2)[C@@H](C)CN([C@@H](C)CO)S3(=O)=O)c1`, the relative growth is inactive: 1.02.

Turning to `CCOC(=O)c1cc2c(c(-c3ccccc3)n1)[C@@H](CCO[Si](C)(C)C(C)(C)C)N([S@](=O)C(C)(C)C)C2`, the relative growth was inactive: 1.02.

As to `CCOC(=O)CCCCCC(=O)Nc1ccc2c(c1)C(=O)N([C@@H](C)CO)C[C@@H](C)[C@H](CN(C)S(=O)(=O)c1cccs1)OCCCC[C@H](C)O2`, the relative growth is inactive: 0.991.

Regarding `Cc1ccc(S(=O)(=O)Nc2ccc3c(c2)C(=O)N([C@H](C)CO)C[C@@H](C)[C@H](CN(C)S(=O)(=O)c2ccc(Cl)cc2)OCCCC[C@H](C)O3)cc1`, the relative growth is inactive: 1.05.

As to `COc1ccccc1CNC(=O)C[C@@H]1C[C@@H]2c3cc(NC(=O)NC4CCCC4)ccc3O[C@@H]2[C@H](CO)O1`, the relative growth is inactive: 0.983.

For the molecule `CC1(C)OC(=O)N(CCCC(=O)O)[C@@]1(C)O`, the relative growth is inactive: 1.02.

`CC[C@@H](O[Si](C#C[Si](C(C)C)(C(C)C)C(C)C)(C(C)C)C(C)C)c1cn([C@H](C)c2ccccc2)nn1`: the relative growth was inactive: 0.964.

As for `C[C@H]1CN([C@@H](C)CO)C(=O)c2cccc(NS(=O)(=O)c3ccc(F)cc3)c2O[C@H]1CN(C)S(=O)(=O)c1cccs1`, the relative growth is inactive: 0.97.

In the case of `C[C@@H]1CN([C@@H](C)CO)C(=O)c2cc(NS(=O)(=O)c3ccc(F)cc3)ccc2O[C@@H](C)CCCCO[C@@H]1CN(C)Cc1ccc(C(=O)O)cc1`, the relative growth was inactive: 0.973.

Consider `C[C@H]1CN([C@@H](C)CO)C(=O)c2cc(NC(=O)Nc3ccc(C(F)(F)F)cc3)ccc2O[C@@H]1CN(C)C(=O)NC1CCCCC1`, for which the relative growth is inactive: 1.01.

Regarding `C[C@H]1CCCCO[C@H](CN(C)C(=O)Nc2cccc3ccccc23)[C@@H](C)CN([C@@H](C)CO)C(=O)c2cc(NC(=O)Nc3ccccc3)ccc2O1`, the relative growth is inactive: 1.01.

For `O=C(O)c1ccc2nncn2c1`, the relative growth was inactive: 0.984.

Consider `O=c1[nH]c(=O)n(C2CC(O)C(CO)O2)cc1C=CBr` (stereo not given), for which the relative growth is inactive: 0.919.

For the molecule `C[C@@H]1CN([C@@H](C)CO)C(=O)Cc2cc(NS(=O)(=O)c3ccc(F)cc3)ccc2O[C@@H]1CN(C)Cc1ccc(Oc2ccccc2)cc1`, the relative growth was inactive: 0.989.

`CCc1nccn1CC(=O)N[C@H]1C[C@@H](C(=O)OC)N(C)C1`: the relative growth was inactive: 1.02.

With `C[C@@H]1CN([C@H](C)CO)S(=O)(=O)c2ccc(-c3cncnc3)cc2O[C@H]1CN(C)C(=O)C1CCCCC1`, the relative growth is inactive: 1.

Regarding `COC[C@H]1CN(C(=O)c2cscn2)N1C`, the relative growth is inactive: 0.895.

For the molecule `C[C@@H]1CCCCO[C@H](CN(C)C(=O)Nc2cccc3ccccc23)[C@@H](C)CN([C@H](C)CO)C(=O)c2cc(NS(=O)(=O)c3cccs3)ccc2O1`, the relative growth was inactive: 1.01.

`COc1ccc(S(=O)(=O)N(C)C[C@H]2Oc3ccc(NC(=O)CCCN(C)C)cc3C(=O)N([C@H](C)CO)C[C@H]2C)cc1`: the relative growth is inactive: 0.995.

For `C[C@@H]1CN([C@@H](C)CO)C(=O)c2cc(NC(=O)CCCCCC(=O)Nc3ccccc3N)ccc2O[C@H]1CN(C)Cc1ccc(C(F)(F)F)cc1`, the relative growth is inactive: 0.974.

For `C[C@@H]1CN([C@@H](C)CO)C(=O)c2cc(NC(=O)Cc3ccccc3)ccc2O[C@@H]1CN(C)S(C)(=O)=O`, the relative growth was inactive: 0.969.

For `CC1(C)OC2COC3(COS(N)(=O)=O)OC(C)(C)OC3C2O1` (stereo not given), the relative growth is inactive: 0.85.

As to `COc1cccc(S(=O)(=O)N(C)C[C@@H]2OCc3cn(nn3)CCCC(=O)N([C@@H](C)CO)C[C@@H]2C)c1`, the relative growth is inactive: 0.968.

For `CCS(=O)(=O)Nc1ccc2c(c1)C(=O)N(C)C[C@H](OC)[C@@H](C)CN(Cc1ccccn1)[C@@H](C)CO2`, the relative growth is inactive: 1.01.
